Tested on: ET-1 stimulated HRMC
Assay: hallmark gene set enrichment in ET-1 stimulated HRMC treated with atrasentan
Conditions: atrasentan 1 nM and 25 nM

For `CCCCN(CCCC)C(=O)CN1C[C@H](c2ccc3c(c2)OCO3)[C@@H](C(=O)O)[C@@H]1c1ccc(OC)cc1` [atrasentan, (2R,3R,4S)-4-(1,3-benzodioxol-5-yl)-1-[2-(dibutylamino)-2-oxoethyl]-2-(4-methoxyphenyl)pyrrolidine-3-carboxylic acid], which “enrichment of hallmark gene sets (TNFα signaling via NF-κB, mitotic spindle, inflammatory response, EMT, IL6-JAK-STAT3 etc.)” value is on record?
Its value is “negative enrichment scores”.

From US20220304979A1, “METHODS OF REDUCING DISEASE FLARES” (Chinook Therapeutics, Inc., priority 2019, published 2022)
